Measured values reported in PubChem BioAssay AID493208 (National Center for Advancing Translational Sciences (NCATS), 2011).
Out of some 44,000 compounds screened, about 340 (0.77%) were called active. Inconclusive results (about 5%) are left out. Calls come from the whole dose curve; as a rule, active = well fitted inhibition curve with a large enough effect; inconclusive = small, poorly fitted or top-dose-only effect; inactive = flat fitted curve, though single readings scatter. Some of the results follow.

Experiment: Acumen qHTS Assay for Inhibitors of the mTORC1 Signaling Pathway in MEF (Tsc2-/-, p53-/-) Cells: Sytravon;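 note: plate controls were DMSO for no effect and rapamycin for full effect; nearly all actives have a fitted effect of over 50% in size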
Settings: phospho-rpS6 immunofluorescence/PI, 24 h; series mostly up to 38.3 µM; activity change, negative = inhibition: at the top concentration
Text: NIH Molecular Libraries Probe Production Centers Network [MLPCN] NIH Chemical Genomics Center [NCGC] MLPCN Grant: NS059428-01 Assay Submitter (PI): Blenis, John; Hoffman, Greg; Harvard University NCGC Assay Overview: The mammalian target of rapamycin (mTOR) is an intracellular serine/threonine kinase Aberrant regulation of mTOR signaling plays a causative role in a number of human diseases, including cancer, benign tumors such as lymphangioleiomyomatosis (LAM) and Tuberous Sclerosis Complex (TSC), and metabolic diseases such as diabetes and obesity. This project aims to identify inhibitors of ribosomal protein S6 (rpS6) phosphorylation. The phosphorylation of rpS6 is a key event downstream of mTOR activation. The assay uses a phospho-specific antibody of phospho-rpS6 to detect inhibitors of mTOR activation. Mutations in the Tsc1 and Tsc2 genes are the underlying genetic lesions responsible for TSC, causing constitutive activation of the mTORC1 pathway and leading to profound effects on cell metabolism. Aberrant metabolism in cancer has recently received significant attention as a target to develop therapeutic agents in the treatment of cancer.1 As Tsc2-/- cells have lost the ability to respond to energy and growth factor deprivation, these cells are unable to properly down regulate cellular biosynthetic processes in response to metabolic stress, and are thus extremely sensitive to glucose deprivation-induced death.2 A central goal of this project is to explore the unique cell survival and metabolic properties of cells with Tsc1 or Tsc2 by screening for compounds that selectively target the Tsc2-/- MEFs by screening both Tsc2-/- and WT MEF cell lines. We hope to better understand these aspects of TSC physiology in order to exploit them for therapeutic benefit.
NCGC Acumen Assay Protocol Summary: For quantitative high throughput analysis of mTORC1 signaling, we developed a cell-based assay for immuno-fluorescence based detection of rpS6 phosphorylation on the Acumen Explorer that will be used a platform for the primary small molecule screen. Mouse embryonic fibroblasts (MEFs) are cultured in 1536-well plates using DMEM + 10% FBS. Twenty-four hrs after plating, test compounds (solubilized in DMSO) are delivered and incubated with the cells for 24 hrs at 37 degree Celsius. Following the incubation, media with compound is aspirated and the cells are fixed in 4% paraformaldehyde (PFA) containing PBS + 0.2% TX-100. Next, PFA is aspirated, cells are washed two times with PBS plus 0.2% TX-100 and the cells are blocked for 1 hr at room temperature (blocking buffer: LiCOR Blocking Buffer plus 0.2% TX-100). […] Cells are washed two times with PBS plus 0.2% TX-100, and stained with 10 uM propidium iodide (PI) for 20-25 minutes for cell number measurement (1:500 dilution of Hoescht staining is also added for IN Cell imaging). The plates are scanned on the Acumen Explorer laser scanning instrument (TTP Labtech) using the 488nm laser for simultaneous excitation of the Alexa-488 and PI. […] The normalized phospho-S6 staining is calculated as the ratio of the integrated Alexa 488 intensity divided by the integrated PI intensity for the single concentration rapamycin control (7.5 nM) and DMSO columns. […] Inhibition of the pathway is defined based on the normalized phospho-S6 intensity in rapamycin treated cells. Active cells are defined as those with a normalized phospho-S6 staining above this threshold, and each treatment is reported as the % positive cells in the well, where thresholds are defined by selecting wells with the highest and lowest signal and differentiating between the % non-active and % active populations. In addition to the pathway specific phospho-S6 endpoint, the number of PI stained cells from the Acumen is recorded as a measure of cell viability. The primary screen was performed with a MEF cell line in a defined genetic background, Tsc2-/-, p53-/- cell line stably transfected with an empty vector control (Tsc2-/- MEF).

Activity change, negative = inhibition, inactive:
Cc1ccc(S(=O)(=O)C(CNC(=O)Cc2ccc(Cl)cc2)c2cccs2)cc1 (configuration not stated) 3.97%
Cc1cccc(Cn2c(=O)n(Cc3ccc4c(c3)OCO4)c(=O)c3oc4ccccc4c32)c1 -1.05%
CCc1ccccc1NC(=O)c1cc2nc(-c3ccc(OC)c(OC)c3)cc(C(F)(F)F)n2n1 2.19%
CCOc1ccc(CNC(=O)c2ccc3c(c2)nnn3C2CCCC2)cc1 5.48%
COc1ccccc1N1CCN(C(=O)Nc2cn(CC(C)C)c(=O)c3ccccc23)CC1 6.56%
CCOCCCNC(=O)c1c(NC(=O)c2cc(=O)c3ccccc3o2)sc2c1CCC2 2.78%
O=c1oc2c(CN3CCCC3)c(O)ccc2cc1-c1ccccc1 -6.26%
CC(C)C(=O)Nc1cccc(C(=O)Nc2nnc(CC(C)(C)C)s2)c1 -5.56%
CCOC(=O)c1ccc(NC(=O)Cn2ncc3c(C)n(Cc4ccccc4F)c(C)c3c2=O)cc1 1.26%
COc1cc2ccccc2cc1C(=O)Nc1ccc2oc(-c3ccc(Cl)cc3)nc2c1 -13.7%
O=C(Nc1ccc(C(=O)OCc2cc(=O)n3c4c(sc3n2)CCCC4)cc1)c1ccc(Cl)cc1 3.97%
CC(C)c1ccc(NC(=O)Nc2csc3c2CCCC3)cc1 3.49%
Cc1ccc2c(=O)cc(C(=O)Nc3c(C(=O)Nc4cccc(Cl)c4)oc4ccccc34)oc2c1 7.63%
COc1ccc(NC(=O)c2c(NCc3cccs3)sc3c2CCCC3)cc1 1%
CCOc1cccc(NC(=O)C2CC(=O)N(C)C(=Nc3ccc(F)cc3)S2)c1 (configuration not stated) -15.2%
O=C(c1ccc(Br)s1)N(Cc1cccnc1)c1nc2ccc(F)cc2s1 -0.0162%
CCOc1ccccc1NC(=O)CN1C(=O)COc2ccc(S(=O)(=O)N3CCCCC3)cc21 -5.53%
Cc1ccc(N2C(=O)CSC23C(=O)N(CC(=O)NC2CCCCC2)c2ccccc23)cc1C (configuration not stated) 5.08%
Cn1cc(C(c2ccccc2)c2ccc(Cl)s2)c2ccccc21 (configuration not stated) 1.13%
Cc1ccc2nc(COc3ccccc3NC(=O)COc3ccccc3Cl)cc(=O)n2c1 -27.8%
Cc1ccc(CNC(=O)C2CCN(S(=O)(=O)c3c(C)noc3/C=C/c3c(C)cc(C)cc3C)CC2)cc1 -14.2%
CSc1ncc(C(=O)NCc2ccc(C)cc2)c(-c2ccccc2)n1 -5.39%
CCNC(=O)C1CCN(Cc2cc3ccccc3n2Cc2ccc(C)cc2)CC1 -10.6%
CCOC(=O)c1c(C)oc2nc(C)nc(N3CCN(c4ccc(OC)cc4)CC3)c12 -9.52%
CCOc1ccccc1CNC(=O)CCCN1C(=O)c2cccnc2Oc2ccc(Cl)cc21 -0.13%
COc1ccccc1Cn1c(SCC(=O)C(C)(C)C)nc2ccccc2c1=O -4.43%
COC(=O)CN1C(C(=O)c2ccccc2)=C(OC(=O)c2ccc(C)cc2)c2ccccc2S1(=O)=O 2%
O=C(c1cccn1-c1nnc(N2CCCCC2)s1)N1CCN(c2ccccc2)CC1 1.22%
CCn1c(=O)c2sccc2n2c(CCC(=O)NCc3ccc(Cl)cc3)nnc12 -7.49%
CCS(=O)(=O)c1ccccc1C(=O)N1CCN(c2nc3ccccc3s2)CC1 -3.3%
N#Cc1ccc(CSc2nnc(-c3ccc(Br)cc3)o2)cc1 1.9%
CCOC(=O)C1CCN(C(=O)Cn2ncc3c4ccccc4n(C)c3c2=O)CC1 -2.15%
COc1ccc(CNC(=O)CCCN2C(=O)c3cccnc3Oc3ccc(Cl)cc32)cc1 -6.5%
Cc1oc(-c2cccc(Cl)c2)nc1CSCC(=O)NCc1ccccc1Cl 1.7%
Cc1ccc(-n2c(SCC(=O)Nc3ccc4c(c3)OCCO4)nc3c([nH]c4ccccc43)c2=O)cc1 -5.19%
Cc1cccc(NS(=O)(=O)c2nnc(NC(=O)c3cccc(C)c3)s2)c1 6.04%
COCCNC(=O)c1ccc(-c2nc(CN3CCc4ccccc43)c(C)o2)cc1 -11.1%
Cc1ccc(OCC(=O)Nc2sc3c(c2C(N)=O)CCCC3)c(C(C)(C)C)c1 1.51%
Cc1csc2nc(COC(=O)c3ccc(NC(=O)C(C)C)cc3)cc(=O)n12 0%
CC(C)OCCCNC(=O)CN1C(=O)COc2ccc(S(=O)(=O)N3CCOCC3)cc21 -10.4%
COc1ccccc1NC(=O)c1ncoc1-c1ccco1 15.4%
Cc1cccc(NC(=O)c2cc3c(=O)n4ccccc4nc3n2C)c1C -0.121%
CCCCNC(=O)Cn1cnc2sc(C)c(S(=O)(=O)N3CCN(c4ccccc4OC)CC3)c2c1=O -2.01%
O=C(Cn1ncc2c3ccccc3n(Cc3ccccc3F)c2c1=O)NCCCc1ccccc1 0.443%
CCOc1ccc2nc(NC(=O)c3ccccc3)sc2c1 -5.25%
COC(=O)c1ccccc1NC(=O)CSc1nc2nc(C)cc(C)n2n1 -34.1%
Cc1ccc(C(=O)Nc2ccc(Br)cc2)cc1S(=O)(=O)NCc1ccccc1 2.12%
COc1ccc(-c2nc3ccccc3s2)cc1NC(=O)COc1cccc(C)c1 -1.36%
O=c1c(N2CCCCC2)csc2ccc(F)cc12 3.74%
CCc1nc2ccc(C(=O)NCc3cccc(Br)c3)cc2nc1CC 0.673%
CCc1ccc(S(=O)(=O)Nc2cc3c(cc2N2CCOCC2)n(C)c(=O)c(=O)n3C)cc1 -4.08%
CCOc1ccc(NC(=O)C(=O)NCCc2ccccc2)cc1 -11.3%
O=C(Cn1c(=O)n(CCCS(=O)(=O)C2CCCCC2)c(=O)c2ccccc21)Nc1ccc(F)c(Cl)c1 0.346%
COc1ccc(C)cc1NC(=O)N1CCN(c2nnc(C)c3c(C)n(-c4ccccc4)nc23)CC1 -2.03%
O=C(c1cnc(N2CCCCC2)c2ccccc12)N1CCN(c2cccc(Cl)c2)CC1 -4%
COCCCNC(=O)c1nn(-c2ccc(C)cc2)c(=O)n(C)c1=O 3.13%
CCOc1ccc(NC(=O)CC2C(=O)N(c3ccccc3)C(=O)N2Cc2cccc(OC)c2)cc1 (configuration not stated) 0.0831%
CCOc1ccccc1NC(=O)CCc1c(C)nc2c3cccnc3nn2c1C -0.542%
CCc1cccc(NC(=O)Cn2ncc3c([nH]c4ccc(C)cc43)c2=O)c1 -3.2%
CCCCNc1sc(S(=O)(=O)CCC)nc1S(=O)(=O)c1ccc(C)cc1 -5.88%
Cc1ccc(CN2C(=O)c3ccccc3Sc3ccc(C(=O)NC4CCCC4)cc32)cc1 14%
CCNC(=O)c1c2c(nc3ccccc13)C(=O)N(C1CCCCC1)C2 0.74%
O=C(Cn1c(SCc2ccccc2F)nc2cccnc21)Nc1ccc(F)c(Cl)c1 1.12%
O=C(NC1CC(=O)N(c2ccccc2)C1)c1ccco1 (configuration not stated) 0.0183%
Cc1ccc(C(=O)N2CCc3cc(CNC(=O)CCc4ccccc4)ccc32)cc1 -6.64%
COc1cccc(C(=O)NCCc2csc(-c3cccc(F)c3)n2)c1OC 0%
O=C(Nc1ccc(F)cc1)Nc1ccc2snnc2c1 -6.07%
CCc1cccc(NC(=O)CN(c2ccc(C)cc2)S(=O)(=O)c2cccs2)c1 -5.54%
CCC1CCCCN1CCCNC(=O)c1[nH]c2ccccc2c1Sc1ccc(Cl)cc1 (configuration not stated) -14.9%
CCOc1ccc(C(c2c(O)cc(C)n(CCOC)c2=O)N2CCN(c3ccccc3)CC2)cc1 (configuration not stated) 3.46%
Cc1c2cnn(CC(=O)N3CCCCC3)c(=O)c2c(C)n1Cc1ccc(F)cc1 -0.576%
COc1cccc(CNC(=O)C(CC(C)C)NS(=O)(=O)c2ccc3c(c2)oc(=O)n3C)c1 (configuration not stated) 2.21%
Cc1ccc(Cl)cc1NS(=O)(=O)c1ccc2oc(=O)c3ncn(C)c3c2c1 3.04%
Cc1ccc2c(c1)C(=O)OC(C(=O)Nc1ncc(Cc3ccc(C(C)C)cc3)s1)C2 (configuration not stated) 6.2%
COc1ccc(-c2noc(N3CCC(C(=O)Nc4ccc(F)cc4Cl)CC3)n2)cc1 1.1%
CCN(C(=O)CCS(=O)(=O)c1cc2[nH]c(=O)c(=O)[nH]c2cc1C)c1ccccc1 -2.08%
Cc1ccc2sc(N3CCN(C(=O)CCS(=O)(=O)c4ccc(Cl)cc4)CC3)nc2c1C 4.45%
O=C(NCCc1ccc(F)cc1)C(=O)NCC(c1cccs1)S(=O)(=O)c1ccc(F)cc1 (configuration not stated) -17.2%
Cc1ccc(-c2cn3nc(N4CCCC(C(=O)Nc5ccc(F)cc5)C4)sc3n2)cc1 (configuration not stated) 0.0361%
Cc1ccc(N(CC(=O)N2CCN(c3ccc(Cl)cc3)CC2)S(=O)(=O)c2c(C)nn(C)c2C)cc1 -2.42%
CCC(Sc1nc2ncccc2[nH]1)C(=O)Nc1cccc(OC)c1 (configuration not stated) -5.3%
CCCN(CCC)C(=O)Cn1c(=O)n(-c2cccc(OC)c2)c(=O)c2c(C)c(C(=O)N(C)C)sc21 0.262%
Cc1ccc(NC(=O)C(Cc2ccccc2)n2cccc2)cc1 (configuration not stated) -18.3%
COc1ccccc1CNC(=O)C1CCCN(C(=O)c2cnn(-c3ccc(F)cc3)c2-n2cccc2)C1 (configuration not stated) -1.19%
COc1ccccc1OCCCSc1nc(-c2ccc(C(C)(C)C)cc2)nc2cc(=O)[nH]n12 -7.95%
COCCCn1c(=O)c2sccc2n2c(CCCC(=O)Nc3cc(C)cc(C)c3)nnc12 -11.2%
COc1ccc(CNC(=O)Cn2ncc3c4ccccc4n(Cc4cccc(Cl)c4)c3c2=O)cc1 -0.565%
CN1CCc2c(sc3c2C(=O)NC(c2ccc(OC(=O)c4ccccc4)cc2)N3)C1 (configuration not stated) 1.1%
COc1ccc(OC)c(NCc2cccn2-c2nnc(N3CCCCC3)s2)c1 -0.758%
Cc1ccc(C)c(S(=O)(=O)c2cn(C)c3cc(N4CCCCC4C)c(F)cc3c2=O)c1 (configuration not stated) -20.9%
COc1ccc(C)cc1NC(=O)c1ccc2c(=O)n3c(nc2c1)CCCCC3 -0.717%
COc1ccc(C(=O)NCCn2cc(SCC(=O)Nc3ccc(C)cc3)c3ccccc32)cc1 -15.2%
Cc1ccc(CNC(=O)NCc2noc3ccc(C)cc23)cc1 2.28%
Cc1cccc(-c2nc3c4ccccc4nc(N4CCN(c5ccccc5F)CC4)n3n2)c1 -1.5%
Cn1c(=O)c2c(-c3ccc(Cl)cc3)n(Cc3ccc(Cl)cc3)cc2n(C)c1=O -3.12%
COC(=O)c1cc2sc(Cl)cc2n1Cc1c(C)cc(C)cc1C -11.2%
CCn1c2ccccc2c2cc(NC(=O)COc3ccc(C)cc3C)ccc21 -2.08%
